In all, about 81,000 sequences were measured (“one-hybrid fitness for binding NBS DNA”: median about -0.1, highest 2% from about 0.36 on). The list shows a part of the results.
B1: Caulobacter ParB omega fusion; a variant is named by its letters at X, in order, B8GW30 (parent)
chain: MESVVVGEPGMSEGRRGLGRGLSALLGEVDAAPAQAPGEQLGGSREAPIEILQRNPDQPRRTFREEDLEDLSNSIREKGVLQPILVRPSPDTAGEYQIVAGERAWRAAQRAGLKTVPIMVRELDDLAVLEIGIIENVQRADLNVLEEALSYKVLMEKFERTQENIAQTIGKSXSHVANXMRLLXLPDEVQSYLVSGELTAXHARAIAAAADPVALAKQIIEGGLSVRETEALARKAPNLSAGKSKGGRPPRVKDTDTQALESDLSSVLGLDVSIDHRGSTGTLTITYATLEQLDDLCNRLTRGI

Variants of: B1
Assay: one-hybrid fitness for binding NBS DNA (the Noc-binding site; scaled: cognate 1, non-cognate 0); higher = stronger binding
Details: with NBS DNA site
In short: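 In E. coli USO, a HIS3 reporter with its site placed 19 bp from the promoter was used to select Caulobacter ParB variants randomised at four specificity codons. Growth lasted 48 hours at 37°C on histidine-free M9 containing 0.1 mM IPTG and 5 mM 3-AT. Fitness was taken as the log change in variant-to-wild-type read ratio from Illumina sequencing of pre- and post-selection plasmids, rescaled between the non-cognate and cognate sites.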

Point of comparison: QMAA, “one-hybrid fitness for binding NBS DNA” value 0.339. Against it:
- DDRC — lower, ≤ 0.2
- VSDI — lower, ≤ 0.2
- PNLA — lower, ≤ 0.2
- QMMS — lower, 0.333
- YKTC — lower, ≤ 0.2
- CLDW — lower, ≤ 0.2
- WTSR — lower, ≤ 0.2
- VLQT — lower, ≤ 0.2
- CYVC — lower, ≤ 0.2
- PHYK — lower, ≤ 0.2
- CSFT — lower, ≤ 0.2
- LLRP — lower, ≤ 0.2
- EVKP — lower, ≤ 0.2
- AADW — lower, ≤ 0.2
- RRPT — higher, 0.694
- YGPY — lower, ≤ 0.2
- RDAL — lower, ≤ 0.2
- MFST — lower, ≤ 0.2
- ITME — lower, ≤ 0.2
- STNF — lower, ≤ 0.2
- CGKT — lower, ≤ 0.2
- YGLW — lower, ≤ 0.2
- CNCT — lower, ≤ 0.2
- ACTI — lower, ≤ 0.2
- NAWR — lower, ≤ 0.2
- CKSC — lower, ≤ 0.2
- VHVS — lower, ≤ 0.2
- RLEC — lower, ≤ 0.2
- QINL — lower, ≤ 0.2
- QKFK — lower, ≤ 0.2
- MKTG — lower, ≤ 0.2
- VLTF — lower, ≤ 0.2
- PKVY — lower, ≤ 0.2
- LYGL — lower, ≤ 0.2
- MESV — lower, ≤ 0.2
- RIQM — lower, ≤ 0.2
- DKQV — lower, ≤ 0.2
- RMDH — lower, ≤ 0.2
- VLGD — lower, ≤ 0.2
- SSLI — lower, ≤ 0.2
- TFDM — lower, ≤ 0.2
- CCIR — lower, ≤ 0.2
- NFTH — lower, ≤ 0.2
- YPHT — lower, ≤ 0.2
- MVRS — lower, ≤ 0.2
- KDAS — lower, ≤ 0.2
- EYNA — lower, ≤ 0.2
- MVWS — lower, ≤ 0.2
- MPLS — lower, ≤ 0.2
- SAES — lower, ≤ 0.2
- TLWH — lower, ≤ 0.2
- YAST — lower, ≤ 0.2
- YSSP — lower, ≤ 0.2
- PRMW — lower, ≤ 0.2
- HCLV — lower, ≤ 0.2
- PIKW — lower, ≤ 0.2
- AMAA — lower, ≤ 0.2
- STEF — lower, ≤ 0.2
- TAHY — lower, ≤ 0.2
- QLTR — higher, 0.487
- KLSW — lower, ≤ 0.2
- RVPQ — lower, ≤ 0.2
- RLII — lower, ≤ 0.2
- PHRQ — lower, ≤ 0.2
- GTNR — lower, ≤ 0.2
- RCGC — lower, 0.236
- TSHR — lower, ≤ 0.2
- SKGF — lower, ≤ 0.2
- SAPC — lower, ≤ 0.2
- WLDT — lower, ≤ 0.2
- MKSL — lower, ≤ 0.2
- LIKR — lower, ≤ 0.2
- SFDE — lower, ≤ 0.2
- TKNG — lower, ≤ 0.2
- GLQT — lower, ≤ 0.2
- GGTR — lower, ≤ 0.2
- DRKT — lower, ≤ 0.2
- DKTR — lower, ≤ 0.2
- ILTW — lower, ≤ 0.2
- NWLT — lower, ≤ 0.2
- CMYT — lower, ≤ 0.2
- VVTL — lower, ≤ 0.2
- RKVW — lower, ≤ 0.2
- TRDS — lower, ≤ 0.2
- RTRW — lower, ≤ 0.2
- SGCR — lower, ≤ 0.2
- HLQM — lower, ≤ 0.2
- NTPC — lower, ≤ 0.2
- CTCN — lower, ≤ 0.2
- RPFG — lower, ≤ 0.2
- ESLA — lower, ≤ 0.2
- RDCS — lower, ≤ 0.2
- WGYR — lower, ≤ 0.2
- SLHF — lower, ≤ 0.2
- LWTL — lower, ≤ 0.2
- WTLA — lower, ≤ 0.2
- QMHT — higher, 0.497
- VELS — lower, ≤ 0.2
- IKGW — lower, ≤ 0.2
- MGLG — lower, ≤ 0.2
- CSLD — lower, ≤ 0.2
- MTDP — lower, ≤ 0.2
- GHGC — lower, ≤ 0.2
- SHLG — lower, ≤ 0.2
- MCHV — lower, ≤ 0.2
- DTFL — lower, ≤ 0.2
- IAEG — lower, ≤ 0.2
- LTVL — lower, ≤ 0.2
- TFLC — lower, ≤ 0.2
- QMTG — lower, ≤ 0.2
- PFKH — lower, ≤ 0.2
- RDRA — lower, ≤ 0.2
- PWFR — lower, ≤ 0.2
- RLAR — higher, 0.42
- HYNK — lower, ≤ 0.2
- LIRI — lower, ≤ 0.2
- QPDT — lower, ≤ 0.2
- ICAR — lower, ≤ 0.2
- QQEF — lower, ≤ 0.2
- VMYE — lower, ≤ 0.2
- NECG — lower, ≤ 0.2
- MNMY — lower, ≤ 0.2
- SHTI — lower, ≤ 0.2
- VSGQ — lower, ≤ 0.2
- RCDV — lower, ≤ 0.2
- NLHL — lower, ≤ 0.2
- LPGV — lower, ≤ 0.2
- TEST — lower, ≤ 0.2
- EHHI — lower, ≤ 0.2
- KHTT — lower, ≤ 0.2
- ANDG — lower, ≤ 0.2
- RVRA — lower, 0.308
- SMPI — lower, ≤ 0.2
- DGPG — lower, ≤ 0.2
- REPW — lower, ≤ 0.2
- PARR — lower, ≤ 0.2
- NHHC — lower, ≤ 0.2
- AMRN — lower, ≤ 0.2
- HNCF — lower, ≤ 0.2
- YHIS — lower, ≤ 0.2
- GMFR — lower, ≤ 0.2
- NPYS — lower, ≤ 0.2
- HARI — lower, ≤ 0.2
- PPDV — lower, ≤ 0.2
- VDTC — lower, ≤ 0.2
- RPST — lower, ≤ 0.2
- TYSG — lower, ≤ 0.2
- DDTC — lower, ≤ 0.2
- QYLM — lower, ≤ 0.2
- CMTA — lower, ≤ 0.2
- EHTM — lower, ≤ 0.2
- GQVV — lower, ≤ 0.2
- VITR — lower, ≤ 0.2
- KRNR — higher, 0.661
- YTQF — lower, ≤ 0.2
- PKMQ — lower, ≤ 0.2
- LTLA — lower, ≤ 0.2
- MKMS — lower, ≤ 0.2
- FVNV — lower, ≤ 0.2
- ALAK — lower, ≤ 0.2
- GAQH — lower, ≤ 0.2
- CESS — lower, ≤ 0.2
- WSYN — lower, ≤ 0.2
- KVSG — lower, ≤ 0.2
- ATHK — lower, ≤ 0.2
- TQND — lower, ≤ 0.2
- SPCI — lower, ≤ 0.2
- IWSR — lower, ≤ 0.2
- ELNY — lower, ≤ 0.2
- GYDT — lower, ≤ 0.2
- PAPP — lower, ≤ 0.2
- VPGC — lower, ≤ 0.2
- NSLD — lower, ≤ 0.2
- VWGI — lower, ≤ 0.2
- CQLT — lower, ≤ 0.2
- PMVY — lower, ≤ 0.2
- RIHC — lower, ≤ 0.2
- SQDA — lower, ≤ 0.2
- PGHG — lower, ≤ 0.2
- QHAS — higher, 0.348
- MFTG — lower, ≤ 0.2
- KLRG — lower, ≤ 0.2
- CQDR — lower, ≤ 0.2
- RNIE — lower, ≤ 0.2
- PKGV — lower, ≤ 0.2
- HFTR — lower, ≤ 0.2
- NENG — lower, ≤ 0.2
- ARLE — lower, ≤ 0.2
- NEIG — lower, ≤ 0.2
- AAND — lower, ≤ 0.2
- ARKE — lower, ≤ 0.2
- ILVT — lower, ≤ 0.2
- IFES — lower, ≤ 0.2
- QTCW — lower, ≤ 0.2
